{"source": "the supplement of paper PMC3334620", "note": "Over roughly 33,000 sequences, “E-score (-0.5 to 0.5)” has its median near -0.016; the highest 2% begin near 0.32. Some of the results follow.", "data": [{"molecular_target": "T1, Stp1 (UniProt B3LFK1)", "T1 sequence": "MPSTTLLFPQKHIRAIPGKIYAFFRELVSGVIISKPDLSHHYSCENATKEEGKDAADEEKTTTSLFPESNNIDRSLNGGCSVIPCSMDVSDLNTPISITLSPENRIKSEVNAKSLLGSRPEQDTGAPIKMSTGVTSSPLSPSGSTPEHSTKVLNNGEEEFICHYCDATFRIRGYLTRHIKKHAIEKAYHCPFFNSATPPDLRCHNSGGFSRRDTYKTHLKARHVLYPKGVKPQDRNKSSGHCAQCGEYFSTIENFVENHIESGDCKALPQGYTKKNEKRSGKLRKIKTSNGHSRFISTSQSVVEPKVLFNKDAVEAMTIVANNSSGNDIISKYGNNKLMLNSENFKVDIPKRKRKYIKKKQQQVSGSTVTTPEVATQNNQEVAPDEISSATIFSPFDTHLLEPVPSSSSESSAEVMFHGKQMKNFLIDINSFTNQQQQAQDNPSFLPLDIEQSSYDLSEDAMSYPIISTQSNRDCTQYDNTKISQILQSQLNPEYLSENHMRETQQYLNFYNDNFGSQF", "test": "PBM E-score (8-mer binding enrichment) (E-score (-0.5 to 0.5)); higher = stronger / more preferred TF binding; most listed sequences are background and not binding sites", "details": "protein concentration: 200 nM; construct: GST-full length", "how_it_was_run": "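Yeast transcription factors, full-length or as DNA-binding domains, were expressed with a GST tag using PURExpress in vitro transcription/translation. At about 100-200 nM they were applied to universal all-10-mer Agilent arrays, double-stranded by primer extension on fresh or once-stripped slides. Fluorescent anti-GST detected bound protein, and masliner normalised the scans. E-scores for ungapped eight-base words, pooled with reverse complements, came from the Universal PBM Analysis Suite.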", "values": [{"sequence": "CAGTGCGG", "PBM E-score": 0.213}, {"sequence": "CTTTCTAC", "PBM E-score": 0.0838}, {"sequence": "GAACAACA", "PBM E-score": 0.0563}, {"sequence": "AGAAGACG", "PBM E-score": 0.0888}, {"sequence": "CGGGCAGA", "PBM E-score": -0.024}, {"sequence": "CACTCAAA", "PBM E-score": 0.0964}, {"sequence": "AGTCTATA", "PBM E-score": -0.0565}, {"sequence": "AATTAAAG", "PBM E-score": -0.108}, {"sequence": "CTCAGCAA", "PBM E-score": 0.148}, {"sequence": "AACACATG", "PBM E-score": 0.0952}, {"sequence": "CAGGGCTA", "PBM E-score": -0.177}, {"sequence": "AATCAAAG", "PBM E-score": 0.00777}, {"sequence": "ATGATGAC", "PBM E-score": -0.135}, {"sequence": "ACCGTGGC", "PBM E-score": 0.0324}, {"sequence": "AAGCGAAA", "PBM E-score": 0.0713}, {"sequence": "AACGAAGT", "PBM E-score": -0.191}, {"sequence": "GACGGCGA", "PBM E-score": 0.4}, {"sequence": "ACATTCCG", "PBM E-score": -0.129}, {"sequence": "CCTTCCTA", "PBM E-score": -0.168}, {"sequence": "ACCATCTG", "PBM E-score": -0.0319}, {"sequence": "CGCGCGAA", "PBM E-score": 0.129}, {"sequence": "AGAACGCG", "PBM E-score": 0.0583}, {"sequence": "CCAGGAAA", "PBM E-score": -0.0536}, {"sequence": "GCGTTTAA", "PBM E-score": 0.024}, {"sequence": "CCGCCTTC", "PBM E-score": -0.175}, {"sequence": "AAGTGCGA", "PBM E-score": -0.111}, {"sequence": "CCCGAAGG", "PBM E-score": -0.0669}, {"sequence": "CGCTTCTA", "PBM E-score": 0.0934}, {"sequence": "GCACACTA", "PBM E-score": -0.0408}, {"sequence": "TGCTAGCA", "PBM E-score": -0.0699}, {"sequence": "AGTTAAAG", "PBM E-score": 0.0606}, {"sequence": "CCACTGTC", "PBM E-score": -0.245}, {"sequence": "ACTGCGAA", "PBM E-score": 0.02}, {"sequence": "AGGGTAGA", "PBM E-score": -0.106}, {"sequence": "GGTACGGA", "PBM E-score": 0.0641}, {"sequence": "CATGTCGC", "PBM E-score": 0.15}, {"sequence": "ACGTCCCA", "PBM E-score": -0.314}, {"sequence": "AGCTAGGC", "PBM E-score": -0.212}, {"sequence": "CCAGTAAG", "PBM E-score": -0.066}, {"sequence": "GCTCCTAC", "PBM E-score": -0.151}, {"sequence": "GCGCAGCA", "PBM E-score": -0.0794}, {"sequence": "CTAAGCGA", "PBM E-score": -0.204}, {"sequence": "ATGACTAC", "PBM E-score": -0.269}, {"sequence": "GCAGCGAC", "PBM E-score": -0.0968}, {"sequence": "GGTTGCCA", "PBM E-score": -0.0475}, {"sequence": "GGACGGAA", "PBM E-score": -0.0852}, {"sequence": "AGCCCCCG", "PBM E-score": -0.356}, {"sequence": "CGCCAACG", "PBM E-score": 0.0633}, {"sequence": "ACAAGATA", "PBM E-score": 0.057}, {"sequence": "ACTCTGAT", "PBM E-score": 0.205}, {"sequence": "AGCCGCCT", "PBM E-score": 0.242}, {"sequence": "GGCACAGA", "PBM E-score": 0.223}, {"sequence": "CGCGGACG", "PBM E-score": 0.195}, {"sequence": "CCCTTCTA", "PBM E-score": -0.11}, {"sequence": "ACTGGCGC", "PBM E-score": 0.239}, {"sequence": "CTGGTAAA", "PBM E-score": -0.074}, {"sequence": "ATTGAACG", "PBM E-score": 0.0706}, {"sequence": "ATCGTTGC", "PBM E-score": -0.0972}, {"sequence": "CAGCCTAG", "PBM E-score": -0.116}, {"sequence": "AAGCAAAT", "PBM E-score": 0.00716}, {"sequence": "ATCACGAG", "PBM E-score": -0.0594}, {"sequence": "AGGACCAG", "PBM E-score": -0.309}, {"sequence": "AGCGTAAG", "PBM E-score": 0.057}, {"sequence": "GCTATCCC", "PBM E-score": -0.189}, {"sequence": "ACGCTTTG", "PBM E-score": 0.13}, {"sequence": "CTCGTATA", "PBM E-score": -0.0941}, {"sequence": "TGTATGAA", "PBM E-score": 0.053}, {"sequence": "AACTTCAT", "PBM E-score": 0.092}, {"sequence": "GGGATTCA", "PBM E-score": -0.0172}, {"sequence": "CCTGTTCG", "PBM E-score": -0.146}, {"sequence": "CCGAAAGG", "PBM E-score": 0.0838}, {"sequence": "CACGACGG", "PBM E-score": 0.0249}, {"sequence": "CGATAGCC", "PBM E-score": -0.0294}, {"sequence": "AGGTGAAT", "PBM E-score": 0.0945}, {"sequence": "ACATCCAG", "PBM E-score": -0.0916}, {"sequence": "ACTGCCTA", "PBM E-score": 0.0366}, {"sequence": "AAAAGTAA", "PBM E-score": 0.173}, {"sequence": "CCACCTCG", "PBM E-score": -0.244}, {"sequence": "AAGGCGCA", "PBM E-score": 0.316}, {"sequence": "AACCGGCC", "PBM E-score": -0.0677}, {"sequence": "GTGACTGA", "PBM E-score": -0.171}, {"sequence": "GCGAGAAA", "PBM E-score": -0.0771}, {"sequence": "GTAAACGA", "PBM E-score": 0.148}, {"sequence": "CTGGGGCA", "PBM E-score": -0.165}, {"sequence": "TAACGTCA", "PBM E-score": 0.092}, {"sequence": "AGAACCCC", "PBM E-score": -0.341}]}]}
